The list shows a part of the results.

The test concerns PfHDP1 homeodomain (GST-tagged). As to the kind of experiment: gcPBM binding intensity (ln(normalized median fluorescence intensity)); higher = stronger DNA binding. A digest of the protocol:
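Binding intensity is defined as the maximum Masliner-normalised natural-log median intensity across replicate spots for either probe orientation. It was measured on an Agilent 4 × 180k array of primer-extended double-stranded 36-bp intergenic genomic probes and negative controls, to which GST-tagged P. falciparum DNA-binding domains made in E. coli were applied for 1 h in 1× PBS with 1% milk, 0.2 mg/ml BSA, 0.5% salmon testes DNA and 0.03% Triton X-100. Detection was by Alexa488 anti-GST antibody and scanning at 488 nm.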
For the sequence “ATATATCAATATGGAATATATATATATATATATATA [TGCATGCA_negctrl_site502]”, the “gcPBM binding intensity (ln)” value amounted to 9.48.
Next, “TTTTGGTTTTGTTCTACACACATAAAAAAAAAAAAG [CACACA_site2276]”: 6.41.
Next, “TATATATATATATATATATTTATGTATTTATTTAAT [TGCATGCA_negctrl_site179]”: 9.35; “ATATATATAAATAAATGTACATAAATAATATATTAT [XGTACX_site5419]”: 6.85; “AAAAAAAAAAAAAAAAGTACAAGCATTGCGTTTTAA [XGTACX_site6075]”: 6.54.
Next, “AGAAAAAAAAAAAAAAAAATATATATATATATATAT [TGCATGCA_negctrl_site411]”: 9.35; “GTATATATATACCATTGTACTTTCGTAAAAATATTT [XGTACX_site4846]”: 6.66.
Consider “AAAAAAAAAAAAAAAACACACATACACGCACGCACA [CACACA_site7569]”, for which the “gcPBM binding intensity (ln)” value was 7.28.
Turning to “TTAATTTATTATCTTTGTACACAATTAAAAAAAAAA [XGTACX_site3469]”, the “gcPBM binding intensity (ln)” value stood at 6.21.
Turning to “TTTTATTATAATAATTGTACAAAAATTATTTAATAT [XGTACX_site6054]”, the “gcPBM binding intensity (ln)” value came out at 6.18.
Next, “ATAAATATACATTATACCGACCATGTGGATATTATA [XGTACX_negctrl_site241]”: 6.46; “GTATATATGTATATGTGTACACATATTCTTAACTCA [XGTACX_site309]”: 7.09; “ATATAAATTGGCAATAGTACATAAAGGCATAGAAAG [XGTACX_site2674]”: 7.46.
“AAATTACACATCCATACACACATATTTTTTTTAATT [CACACA_site5242]”: the “gcPBM binding intensity (ln)” value was found to be 7.04.
Next, “AGCTGAAAAAAAAGCTTGCACACGTATTTGCTTTAT [CACACA_site1512]”: 8.26; “AATATGTAGTAATCAAGTACTAATGTCTTAATTCGG [XGTACX_site308]”: 6.56.
Next, “GTTTTTTATATAAGGTGGTCAACATTGTAATGTTAA [XGTACX_site3204]”: 6.64; “CATATTATATTCTGCTTACACACATATATATATATA [CACACA_site3059]”: 9.41.
As to “AATAATAAGAATAACGCATGCACATATAATATAGAA [TGCATGCA_site3]”, the “gcPBM binding intensity (ln)” value was determined as 8.24.
Next, “TTTTTTTGTTATATCCTGCACTTCTTAACTATATTA [GTGCAC_site9807]”: 7.64; “TCATAGGTTCAAAAGGGTACATTAATACATACATAT [XGTACX_site2236]”: 6.45; “AAATAAAAAAAGGGAACATGCAATATGTACAAATAT [TGCATGCA_site869]”: 7.49.
Next, GTAGTTACATATAGGGTGCTCCAATAGTTGACCTCG: 6.66; “TCTTTTTTCTTTTTTTCACACATTATTTTTTAAATA [CACACA_site5197]”: 6.58.
Next, “CATATATATTGATATGCACACCTATGTATTGATGTA [CACACA_site8269]”: 9.47.
As to “AGCATTTTTCATTTTGCACACATGTTTTATGGGTAT [CACACA_site5839]”, the “gcPBM binding intensity (ln)” value was 10.5.
“ACGATGAATATGTAAAGTACGCAAATGTAACAATAT [XGTACX_site728]”: the “gcPBM binding intensity (ln)” value was 7.2.
Next, “AATAATAGAAGCACCCACCCACCACCACCCACACAT [CACACA_negctrl_site1033]”: 7.06; “GAGAAACTTGTTTAAACATGCACAAAAAAAAAAAAA [TGCATGCA_site340]”: 6.82.
As for “TATATGGAAAATTAAAGTACTAAAGAATAAATAGAA [XGTACX_site8796]”, the “gcPBM binding intensity (ln)” value came out at 6.61.
Next, “TATAAAATAAATTGTGCACACATATTTATAAATATG [CACACA_site2330]”: 10.5; “TATAGATACATATACACACACACACCGACATATATA [CACACA_site9138]”: 7.03; “AATATATGTTTAATTTCACACACAAATATACATTTT [CACACA_site9385]”: 6.56.
Next, “ATATATATATATATATGTACACATATACGCTTTTTC [XGTACX_site3838]”: 9.34; “TACTCCTTAAATATATGTAAAGGAAGAAAAAAAAAA [XGTACX_negctrl_site306]”: 6.37; “TTGTTTCTACAATTTAATAAAATACGTTTTCAAAAA [XGTACX_negctrl_site377]”: 5.99.
Next, “ACAATAAAAATAAAAAGTACAAATAAAAAAAATAAA [XGTACX_site6718]”: 6.87; “TTTGAGATAAAAGACTGTACTTAGAATGTATAAAAA [XGTACX_site203]”: 6.17.
In the case of “ATATATATATATATATGTACATAAATATTTTAAAAT [XGTACX_site4980]”, the “gcPBM binding intensity (ln)” value amounted to 9.43.
Next, “TTTAATTTTATATAGAGTACAAAAAAATAGAAAGAT [XGTACX_site3870]”: 7.13; “AAAAAAAAAAAAAACTGTACCAAAAAGAATATATAC [XGTACX_site8345]”: 6.51.
Next, “TAAAATATAAAACACACACACATATATATATATATT [CACACA_site224]”: 6.75.
For “ATCCTCTTTACAATATGTACATAAATATATATTTAT [XGTACX_site8001]”, the “gcPBM binding intensity (ln)” value worked out at 7.45.
Next, “TATATATATAAATACACACACATATATATATATATA [CACACA_site4867]”: 9.33; “TATATATTTTTATTATGTACATATTAACAATGTGTT [XGTACX_site879]”: 6.41; “TATTTATTTATTTATTTATTTATTTATTTATATTTA [CACACA_negctrl_site398]”: 6.64.
For the sequence “TATAATAATACGTATTGTACTATTAGGTTAATTCGT [XGTACX_site264]”, the “gcPBM binding intensity (ln)” value came to 6.22.
Next, “ACTTGTAAGAAACACACACACACACCCATATATATA [CACACA_site796]”: 6.96; “TCTATAAAGGAATATACACACATATATATATATATA [CACACA_site410]”: 9.4; “TTTTCTTGTAAATTACGTACGAATGTGTAGAGAAAT [XGTACX_site1339]”: 7.1.
Next, “AAGTAAAATAAGTATACACACATAAATATATATATA [CACACA_site685]”: 8.54; “TATATATATATTTAGTGTACTTAAAAAAAATAATAA [XGTACX_site5454]”: 8.25; “TATTTTTTTTTCCATTGTACATTTTTGATATTTTTC [XGTACX_site744]”: 6.75.
Next, “ATAATAATAAAATATATATACAAAGGTGAAATTATA [TGCATGCA_negctrl_site197]”: 6.83.
“TTATTAAATATGTACACACGTACATTTTATAAATGA [CACACA_site2387]”: the “gcPBM binding intensity (ln)” value amounted to 6.1.
Next, “TTCTTTAAAAAATTCGATAAAAAAAAAAAAAGAAAA [CACACA_negctrl_site242]”: 6.17.

The values above are taken from the supplement of paper PMC11417369.
